# Measurements published in PubChem BioAssay AID686971 (National Center for Advancing Translational Sciences (NCATS), 2013).
# Hit rate of the full screen: of about 360,000 compounds, about 7,500 (2.1%) were called active. This list was built around the results that the source calls inconclusive (neither active nor inactive); the mix of calls is not that of the screen. Calls follow the shape of the dose curve; as a rule, active = well fitted cell-killing curve with a large enough effect; inconclusive = small, poorly fitted or top-dose-only effect, or effect the other way, or another doubt; inactive = no such curve, though single readings can be large or run the other way. No potency is given beside an inconclusive call; the fits are too rough.
# Assay: qHTS for induction of synthetic lethality in tumor cells producing 2HG: qHTS for the HT-1080-IDH1KD cell line;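 as to activity, negative = toxicity: 0% = DMSO wells and -100% = cell-free medium wells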
# Settings: HT-1080 IDH1 knockdown viability, ATP luminescence, 48 h; activity, negative = toxicity: at 46.1 µM (top of the series) unless noted
# Outline: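 Knockdown cells (IDH1KD HT-1080) received compounds 2 h after plating at 750 cells/well and were kept 48 h at 37 °C in 5% FBS RPMI. A CellTiter-Glo luminescence read gave % activity for curve fitting.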
# Potency is read from the fitted curve at half-maximal effect; tags tell the direction and shape of the fitted curve.
Compound,"activity, negative = toxicity",Potency
C(=N\NCc1ccccc1)/c1ccc2nccnc2c1,inactive: 6.05%,
COc1ccc(CN(CC(=O)NCC2CCCO2)C(=O)CCC(=O)Nc2nccs2)cc1 (centres undefined),inactive: 4.23%,
CNCCCC1Sc2ccccc2Oc2ccccc21 (centres undefined),,"inconclusive [cytotoxic, single point]"
CCOC(=O)c1sc(NC(=O)Nc2cccc(Cl)c2)cc1C,,"inconclusive [cytotoxic, single point]"
COc1ccc(CC(=O)NCc2ccccc2)cc1,,active: 8.2 µM
COc1ccc(C)cc1N=Nc1ccc(O)c2ncccc12,,"inconclusive [cytotoxic, partial curve]"
CC(=O)Nc1ccc(N2C(C(C)=O)=NN(c3ccccc3)C2c2cccs2)cc1 (centres undefined),,"inconclusive [cytotoxic, single point]"
Cc1[nH]n(-c2cccc(Cl)c2)c(=O)c1/C=N/n1c(C)nc2ccccc2c1=O,,"inconclusive [cytotoxic, single point]"
CC(C)(C)[C@@H]1CCC(=O)N(CC[C@H](Sc2ccc(Br)cc2)c2ccccc2)CC1,,"inconclusive [cytotoxic, single point]"
CCC(=NCCc1c(C)[nH]c2ccccc12)C1=C(O)CC(c2ccccc2)CC1=O (centres undefined),,active: 8.2 µM
Cc1ccc(/C=C/C(=O)N2CCc3ccccc32)o1,,"inconclusive [cytotoxic, single point]"
O=C(Cc1ccccc1)NCc1cccnc1,inactive: 3.56%,
Cc1c(CN(C)C(=O)/C=C/c2ccc([N+](=O)[O-])cc2)cnn1C,inactive: -1.65%,
O=C(N/N=C/c1cccc([N+](=O)[O-])c1O)C(O)(c1ccccc1)c1ccccc1,,"inconclusive [cytotoxic, partial curve]"
O=C1OC(c2ccccc2)c2ccc3ccccc3c21 (centres undefined),inactive: -10%,
Cc1ccc(S(=O)(=O)N(Cc2ccc(Cl)cc2)c2ccccc2C(=O)NCc2cccnc2)cc1,,"inconclusive [cytotoxic, single point]"
O=C(CN1CCOCC1)NN=Cc1ccc([N+](=O)[O-])o1,,"inconclusive [cytotoxic, single point]"
O=Nc1ccc(O)c2ncccc12,,"inconclusive [cytotoxic, single point]"
N#C/C(=C\c1ccccc1)C(=O)N(c1ccccn1)C1CCCCC1,,"inconclusive [cytotoxic, single point]"
Cc1ccccc1-c1nnc(Cc2ccccc2)o1,,"inconclusive [rising, partial curve]"
COc1cccc(C(=O)Nc2ccc3c(c2)C(=O)NC3=O)c1,inactive: 26.4%,
COCCNC(=O)CN1C(=O)NC(c2ccccc2)(c2ccccc2)C1=O,inactive: -0.584%,
Nc1c2c(nc3ccc(Br)cc13)N(c1ccccc1)CC2,,"inconclusive [cytotoxic, single point]"
COc1ccc(C(CNC(=O)COc2cc(C)c(Cl)c(C)c2)N2CCCCC2)cc1 (centres undefined),inactive: -1.91%,
Cc1ccsc1C(=O)N/N=C/c1ccc2c(c1)OCO2,,"inconclusive [cytotoxic, partial curve]"

Compound,"activity, negative = toxicity",Potency
CC(C)C(C(=O)NC1=NCCS1)c1ccc(Cl)cc1 (centres undefined),,"inconclusive [cytotoxic, single point]"
Oc1cccc(Nc2nc(O)c(/C=C3\C=Nc4ccccc43)s2)c1,,"inconclusive [cytotoxic, single point]"
CC(=O)N1CCc2c(sc(NC(=O)c3ccc([N+](=O)[O-])o3)c2C#N)C1,,active: 2.91 µM
O=S(=O)(NCC[C@@H]1CC[C@H](NS(=O)(=O)c2cccc(F)c2)[C@@H](CO)O1)c1cccc(F)c1,inactive: -15.3%,
O=C1NC2c3ccccc3C(=O)N2c2c1cnn2-c1ccccc1 (centres undefined),,"inconclusive [cytotoxic, single point]"
C[C@H](NC(=O)c1[nH]cnc1C(=O)Nc1ccon1)c1ccccc1,inactive: -1.11%,
Cc1cccc(C)c1NC(=O)COC(=O)c1ccc2[nH]c3c(c2c1)CCCC3,inactive: -24%,
O=C(O)CC1NC(=S)N(c2ccccc2)C1=O (centres undefined),,"inconclusive [cytotoxic, partial curve]"
Cc1nnc(NC(=O)CCC(=O)N2CCN(S(=O)(=O)c3cc([N+](=O)[O-])ccc3C)CC2)s1,inactive: 1.07%,
Cc1ccc(OCC(=O)NNc2c3ccccc3nc3ccccc23)cc1,inactive: -25.7%,
O=C(Nc1ccccc1)NN(C(=O)CCl)c1ccccc1,,active: 4.61 µM
OCCN1CCN(CCCN2c3ccccc3Sc3ccc(Cl)cc32)CC1,,"inconclusive [cytotoxic, single point]"
O=[N+]([O-])c1cccc(-c2c[n+]3c(n2-c2ccccc2)SCC3)c1,inactive: 10.7%,
O=C(NCc1ccco1)c1cc2ccc(O)cc2oc1=O,,"inconclusive [cytotoxic, single point]"
CCCCC(=O)Nc1cccc(NC(=S)NC(=O)C(C)C)c1,inactive: 4.98%,
CCCn1c(=O)c(C(=O)N/N=C/c2ccccc2F)c(O)c2ccccc21,inactive: 15.7%,
Cc1ccnc(Nc2nc(-c3sc(C)nc3C)cs2)c1,,"inconclusive [cytotoxic, single point]"
CC1C(=O)N(Cc2cn(Cc3ccco3)nn2)CCS(=O)(=O)N1Cc1ccc(-c2ccc(F)cc2Cl)cc1 (centres undefined),,"inconclusive [cytotoxic, single point]"
Cc1ccc2sc(N(CCCN(C)C)C(=O)CCS(=O)(=O)c3ccccc3)nc2c1C,,"inconclusive [cytotoxic, single point]"
O=C(N/N=C/c1ccc(O)cc1)NC12CC3CC(CC(C3)C1)C2,,"inconclusive [cytotoxic, single point]"
CCSC(=O)N(CC)CC(=O)Nc1c(CC)cccc1CC,inconclusive: -38.3% [cytotoxic],
Cc1sc(NC(=S)NC(=O)CCc2ccccc2)c(C(N)=O)c1C,,"inconclusive [cytotoxic, full curve]"
COc1ccc(/C=C/C(=O)C2(O)CCCCC2)cc1OC,,"inconclusive [cytotoxic, single point]"
COc1ccc(NC(=O)c2sc(=O)n(Cc3ccc4ccccc4c3)c2C)cc1OC,,"inconclusive [cytotoxic, partial curve, poor fit]"
OC(c1ccc(-c2ccccc2)cc1)c1ncc(-c2ccccc2)[nH]1 (centres undefined),,"inconclusive [cytotoxic, single point]"

Compound,"activity, negative = toxicity",Potency
CC(=O)OCC#CCSc1nc2ccccc2n1C,inactive: -20.5%,
COCCNC(=O)c1cc2c(c(-c3cccc(-c4cc5ccccc5o4)c3)n1)[C@H](CCO)N(S(=O)C(C)(C)C)C2 (some centres undefined),,"inconclusive [cytotoxic, single point]"
Cc1nc2c3cc(Cl)ccc3n(CCN3CCOCC3)c2s1,,active: 20.6 µM
CCC[C@H](N[C@@H](C)C(=O)N1[C@H](C(=O)O)C[C@@H]2CCCC[C@@H]21)C(=O)OCC,,"inconclusive [cytotoxic, full curve, poor fit]"
CCn1c2c(c(=N)c3ccccc31)CCC2,,"inconclusive [cytotoxic, partial curve, poor fit]"
COc1cc(-c2cn[nH]c2N)cc(OC)c1OC,,"inconclusive [cytotoxic, single point]"
O=C(Nn1nnnc1Nc1ccccc1)C12CC3CC(CC(C3)C1)C2,,"inconclusive [cytotoxic, single point]"
O=C(O)c1cccc(NC(=O)c2cccc(NC(=O)C3CCCO3)c2)c1 (centres undefined),inactive: 22.5%,
Cc1cc(C)cc(NC(=O)COc2ccc(C(=S)N3CCOCC3)cc2)c1,,"inconclusive [cytotoxic, single point]"
Oc1ccc(/C=N/Nc2nc(-c3cccnc3)nc3ccccc23)c(O)c1,,"inconclusive [cytotoxic, partial curve]"
O=C(O)CCCNC(=O)c1cccc(C(=O)NCCCC(=O)O)n1,inactive: -3.68%,
CC(C)(C)c1cnnn1-c1ccc(C(=O)CCl)cc1,,"inconclusive [cytotoxic, partial curve]"
Cc1ccc(C)c2[nH]c(=O)c(C(c3nnnn3C3CCCC3)N3CCOCC3)cc12 (centres undefined),inactive: -2.57%,
CN(C)c1cccc(NC(=O)C2(C)Cc3c(-c4cccnc4)ccnc3O2)c1 (centres undefined),inactive: -7.92%,
CC(C)c1ccc(CN2CCC(Oc3ccc(C(=O)N4CCCC4)cc3)CC2)cc1,inactive: -12.9%,
CCOC(=O)c1ccc(NC(=O)CSc2nc3cccnc3n2C)cc1,,"inconclusive [cytotoxic, partial curve]"
COc1nn(CC(=O)N2N=C(C)CC2(O)C(F)(F)F)cc1[N+](=O)[O-] (centres undefined),inactive: 4.84%,
CCOC(=O)c1cnc2c(C)c(Cl)ccc2c1N1CCN(CC)CC1,,active: 14.6 µM
COc1ccc2ccccc2c1CN1CCN(Cc2ccccc2)CC1,,"inconclusive [cytotoxic, single point]"
c1cnc2nc(-c3ccc4c(c3)OCO4)cn2c1,,"inconclusive [cytotoxic, partial curve, poor fit]"
CC(C)n1cnc2c(NCc3ccccc3)cc(N[C@H](C)CO)cc21,,active: 23.1 µM
N=c1nc2n(cc1F)C1OC(CO)C(O)C1O2 (centres undefined),,"inconclusive [cytotoxic, full curve]"
CCCCN(Cc1ccccc1)C1CCN(Cc2ccccc2)CC1,,"inconclusive [cytotoxic, partial curve]"
COc1cc([N+](=O)[O-])ccc1N/C=C/C(=O)c1cccs1,,"inconclusive [cytotoxic, single point]"
